From publication PMC13450841 (PLOS Pathogens, 2026)

Tested on: P. aeruginosa PA103

[H]/N=C(\N/C(=N/[H])NCCCCCCNC(=N)NC(=N)Nc1ccc(Cl)cc1)Nc1ccc(Cl)cc1 [chlorhexidine]
Bactericidal activity across a range of concentrations: dose-dependent bactericidal activity at higher concentrations
